# Measured values as given in patent US20180258175A1 (ABLEXIS, published 2018).
# Tests used:
# [1] = target: T1, human CD115 extracellular domain (Sino Biological 10161-H08H) (human, UniProt P07333 partial chain); test: competition ELISA, competitor TMR 20A;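 note: epitope binning by ELISA, anti-huCD115 hybridoma supernatant antibodies tested for binding to huCD115 with the competitor antibody present, loss of binding placing them in the competitor's bin; low signal means same epitope bin as the mouse competitor antibody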
# T1 construct: extracellular domain; bought recombinant protein; also called huCD115; hu-CD115
# [2] = target: T1, human CD115 extracellular domain (Sino …); test: competition ELISA, competitor TMR 95A;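 note: clonal anti-huCD115 hybridoma supernatants tested for binding while a competitor mouse antibody is present, where failure to bind assigns them to that competitor's epitope bin; low signal means same epitope bin as the mouse competitor antibody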
# [3] = target: T1, human CD115 extracellular domain (Sino …); test: competition ELISA, competitor TMR 100A;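 note: clonal anti-huCD115 hybridoma supernatants tested for binding with the competitor antibody present, clones failing to bind are assigned to the competitor's epitope bin; low signal means same epitope bin as the mouse competitor antibody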
# [4] = target: T1, human CD115 extracellular domain (Sino …); test: competition ELISA, competitor TMR 24A;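 note: clonal anti-huCD115 hybridoma supernatant antibodies bound with a competitor mouse antibody present, and failure to bind puts a clone in that competitor's epitope bin; low signal means same epitope bin as the mouse competitor antibody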
# [5] = target: T1, human CD115 extracellular domain (Sino …); test: competition ELISA, competitor TMR 44B
# [6] = target: T1, human CD115 extracellular domain (Sino …); test: competition ELISA, competitor TMR 35A
# [7] = target: T1, human CD115 extracellular domain (Sino …); test: SPR ProteOn, supernatant mAb captured on anti-mouse IgG, Hu CD115 analyte
Binder,signal vs NO COMP=100 [1] [%],signal vs NO COMP=100 [2] [%],signal vs NO COMP=100 [3] [%],signal vs NO COMP=100 [4] [%],signal vs NO COMP=100 [5] [%],signal vs NO COMP=100 [6] [%],Kd [7] [nM],koff [7] [s⁻¹],kon [7] [M⁻¹ s⁻¹]
"CCK-401A (antibody, V domains shown, AlivaMab chimeric IgG, human kappa LC) VH: not shown VL: DIQMTQSPSSLSASVGDRVTITCQASQDISDYLNWYQQKPGKAPKLLIYDESNLETGVPSRFSGSGSGTDFTFTISSLQPEDIGTYYCQQYDNLLTFGPGTKVDIK",104,94,106,96,93,98,,,
"CCK-406A (antibody, V domains shown, AlivaMab chimeric IgG, human kappa LC) VH: [letters of about 100 residues not shown]NDYGGPVDAFDIWGQGTMVTVSS VL: DIVMTQSPDSLAVSLGERATINCKSSQSVLYSSNKKNYLTWYQQKVGQPPKLLIYWASTRESGVPDRFSGSGSGTDFTLTISSLQAEDVAVYYCQQYYSTPFTFGGGTKVEIK",103,87,109,96,88,99,,,
"CCK-459A (antibody, V domains shown, AlivaMab chimeric IgG, human kappa LC) VH: [letters of about 100 residues not shown]ESPYWYFDLWGRGTLVTVSS VL: DIVMTQSPDSLAVSLGERATINCKSSQTVLYSSDNKNYLAWYQQKPGQPPKLLIYWASTRESGVPDRFSGSGSGTDFTLTISSLQAEDVAVYYCQQYYSTPRTFGQGTKVEIK",90,77,95,86,84,3,0.68,3.38e-05,50000
"CCK-414A (antibody, V domains shown, AlivaMab chimeric IgG, human kappa LC) VH: [letters of about 100 residues not shown]GDYSYTDAFDIWGQGTMVTVSS VL: DIVMTQSPDSLAVSLGERATINCKSSQSVLYSSNNKNYLAWYQQKPGQPPKLLIFWASTRDSGVPDRFSGSGSGTDFTLTISSLQAEDVAVYYCQQYYSTPLTFGGGTKVEIK",106,86,101,92,87,91,,,
